Assay results from PubChem BioAssay AID588855 (National Center for Advancing Translational Sciences (NCATS), 2011).
Screen size: about 410,000 compounds; about 5,000 (1.2%) were called active. This list was built around the results that the source calls inconclusive (neither active nor inactive); the mix of calls is not that of the screen. The call rests on the fitted dose curve; in most records, active means well fitted inhibition curve with a large enough effect; inconclusive means small, poorly fitted or top-dose-only effect; inactive means no such curve, though single readings can be large or run the other way. A potency beside an inconclusive call is a rough fit, not a confirmed value.

Experiment: qHTS for Inhibitors of TGF-b; further: nearly all actives have a fitted effect of over 65% in size
Conditions: HepG2 CAGA-GFP TGF-b/SMAD3 reporter, GFP fluorescence, 18 h, TGF-beta stimulated, 500 pg/mL final; series mostly up to 46.1 µM
In short: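 HEPG2 CAGA-GFP, 1000 cells/well; 2 h settle, 37 C; cpd via pin tool; TGF-b 500 pg/mL final; 18 h, 37 C; GFP imaging ex488/em500-530; %Activity normalised to -TGF-b and +DMSO controls; CRC fit, curve class.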
Potency means the concentration at half of the fitted maximal effect; tags describe the fitted curve by direction and shape.

Compound	Potency
COC(=O)C1=C(C)N(Cc2ccccc2)C(=NCCCCO)N[C@H]1CCc1ccccc1	inconclusive: 0.501 µM [inhibitor, full curve, poor fit]
CCOC(=O)COc1cccc2c(=O)n(CC(=O)NCc3ccc(F)cc3)ccc12	inconclusive: 1.26 µM [inhibitor, single point]
CCc1nn(CC(=O)N2CCC(C)CC2)c(=O)c2cc3occc3n12	inactive
O=C(CCN1C(=O)c2ccc([N+](=O)[O-])cc2C1=O)Nc1cccc(O)c1	inconclusive: 5.62 µM [inhibitor, single point]
CC(C)C[C@H]1CNC(=S)N1CC1CCCN1C[C@H](CC(C)C)N1C[C@H](Cc2ccc(O)cc2)N(CC2CCCCC2)C1=S (stereo partly specified)	active: 10 µM
Cc1ccc(S(=O)(=O)/N=C(/c2ccccc2)N2CCOCC2)cc1	inconclusive: 0.447 µM [inhibitor, partial curve, poor fit]
COc1ccc(C(=O)Nc2cccc(-c3cn4ccsc4n3)c2)c(OC)c1	inconclusive: 35.5 µM [inhibitor, single point]
O=S(=O)(Nc1cccc(C(F)(F)F)c1)c1ccc(NS(=O)(=O)c2ccc3c(c2)OCCO3)cc1	inconclusive: 1.58 µM [inhibitor, full curve, poor fit]
CCOC(=O)C1=CCN(S(=O)(=O)c2ccc(Br)cc2)C1c1ccc(C)cc1 (stereo unspecified)	inconclusive: 10 µM [inhibitor, partial curve, poor fit]
COCCN=C1OC(=O)N2C(=O)C3=C4[C@@H](C[C@H]5C(=O)N(c6ccccc6)C(=O)[C@H]5[C@H]4[C@@]12Cc1ccccc1)[C@H]1C(=O)N(c2ccccc2)C(=O)[C@H]1[C@H]3C	inconclusive: 14.1 µM [inhibitor, single point]
CCOC(=O)c1c(NC(=O)Cc2ccccc2)sc2c1CC(C)(C)NC2(C)C	inconclusive: 22.4 µM [inhibitor, single point]
CCN1CCN(Cc2c(O)ccc3c2O/C(=C\c2ccccc2)C3=O)CC1	inactive
CCNc1ccc(C(=O)OCC)cc1NC(=O)c1cccc(N(C)C)c1	inconclusive: 0.631 µM [inhibitor, full curve, poor fit]
COc1ccc(OC)c(NC(=O)CSC2=Nc3ccccc3C3=NC(CCC(=O)NCc4ccccc4)C(=O)N23)c1 (stereo unspecified)	inconclusive: 35.5 µM [inhibitor, single point]
Cc1nc2ccn(Cc3cccs3)c(=O)c2cc1C(=O)NCc1ccc(Br)cc1	inconclusive: 12.6 µM [inhibitor, partial curve, poor fit]
COc1ccc(CNC(=O)COC(=O)CC2CC3CCC2C3)cc1OC (stereo unspecified)	inconclusive: 4.47 µM [inhibitor, full curve]
COc1ccc(-c2sc3cc(OC)c(OC)cc3c2-c2ccc(O)cc2)cc1	inconclusive: 35.5 µM [inhibitor, single point]
COc1ccc(/C=N/c2c(-c3ccc(OC)cc3)nc3n2CCS3)cc1	inactive
Nc1cc(C(F)(F)F)ccc1S(=O)(=O)Nc1cccc2c1NCCC2	inconclusive: 35.5 µM [inhibitor, single point]
c1ccc(-c2nnc(OCc3cccnc3)c3ccccc23)cc1	inconclusive: 11.2 µM [inhibitor, partial curve]
Cc1cccc(N2CCN(C(=O)Cn3nc(C)c4sc5ccccc5c4c3=O)CC2)c1C	inactive
CN(CC(O)COC(c1ccccc1)c1ccccc1)C1CCCCC1 (stereo unspecified)	inactive

Compound	Potency
CCCSCCCNC(=O)C1CCN(C(=O)c2cnn(-c3ccccc3)c2-n2cccc2)CC1	inconclusive: 35.5 µM [inhibitor, single point]
C=CC[C@H](CC(=O)N(CCO)Cc1ccccc1)C(=O)N[C@H](COC(=O)[C@@H](CC=C)Cc1ccc(F)cc1)Cc1ccccc1	inconclusive: 25.1 µM [inhibitor, single point]
CCOC(=O)/C=C/C(=O)OCC(=O)Nc1ccc(OC)c(Cl)c1	inactive
O=C(CSc1nc2ccccc2nc1N1CCOCC1)N1CCN(c2ccccc2)CC1	inconclusive: 25.1 µM [inhibitor, single point]
CC1(C)CC(=O)C(C=Nc2ccc(N)cc2)=C(O)C1	inactive
CN(C)C(=O)CCc1ccc2c3c([nH]c2c1)[C@]1(CCC2CCCC2)[C@@H](C(=O)N2CCOCC2)C[C@H](CC(=O)NCc2cccc(C(F)(F)F)c2)C(=O)N1CC3	active: 11.2 µM
Cc1cccc(CN2CCC(CNC(=O)Cn3ncc4c([nH]c5ccccc54)c3=O)CC2)c1	inactive
CC(C)(C)SCCNC(=O)c1ccccc1	inactive
O=[N+]([O-])c1ccc(S(=O)(=O)Nc2nc(-c3ccccc3)cs2)cc1	inconclusive: 11.2 µM [inhibitor, partial curve, poor fit]
CCc1sc2nc(SCC(=O)Nc3cc(C)on3)n(-c3cccc(OC)c3)c(=O)c2c1C	inactive
CCC1Nc2ncnc(N3CCCCC3)c2N(Cc2ccc(C)cc2)C1=O (stereo unspecified)	inconclusive: 22.4 µM [inhibitor, single point]
O=C(CCN1CCN(c2ccccc2)CC1)c1ccc(Cl)cc1	inconclusive: 15.8 µM [inhibitor, single point]
Cc1ccc(OCCn2cc(C(=O)c3cccs3)c3ccccc32)cc1	inconclusive: 22.4 µM [inhibitor, partial curve, poor fit]
O=[N+]([O-])c1cc(Cl)ccc1N1CCN(c2cccc(C(F)(F)F)c2)CC1	inactive
Cc1ccc(S(=O)(=O)CCC(=O)NCCc2ccc(Cl)cc2)cc1	inactive
Cn1c(NCCc2ccncc2)nc2cc(-c3ccccc3)sc2c1=O	inactive
C/C(=N/O)c1c(O)c(C)c(-c2ccccc2)n(-c2ccccc2)c1=O	inconclusive: 3.98 µM [inhibitor, single point]
O=C(Nc1ccc2c(c1)OCO2)c1cc(C2CCCCN2S(=O)(=O)Cc2ccccc2)on1 (stereo unspecified)	inactive
Cc1cc(N2CCN(C)CC2)ccc1NC(=O)c1ccc(-c2ccc(Cl)cc2)o1	inconclusive: 35.5 µM [inhibitor, single point]
CCOc1cc(N2CCOCC2)c(OCC)cc1NC(C)C(=O)N1CCN(CC)CC1 (stereo unspecified)	inconclusive: 35.5 µM [inhibitor, partial curve, poor fit]
COc1ccc2ccccc2c1/C=N/NC(=S)NCCN1CCOCC1	inconclusive: 35.5 µM [inhibitor, single point]
CC(C)(O)c1[nH]c2ccc(C(F)(F)F)cc2c1C(C)(C)O	inconclusive: 31.6 µM [inhibitor, single point]

Compound	Potency
Cc1nc2c(C(=O)NCCC(C)C)c[nH]n2c(=O)c1Cc1ccccc1F	inconclusive: 22.4 µM [inhibitor, single point]
O=C(CSc1cc(Cl)ccc1Cl)Nc1ccc(N2CCOCC2)cc1	inactive
CCN(CC(=O)Nc1ccc(C#N)cc1)CC(=O)Nc1ccc2c(c1)OCCO2	inactive
O=C(CCl)N(c1ccc(Cl)cc1)c1c[nH]c2ccccc12	active: 15.8 µM
COc1ccccc1-c1c(C#N)c(N)nc2c1CCC2	inconclusive: 6.31 µM [inhibitor, single point]
Cc1ccc2cc(CN(C(=O)c3ccco3)c3cccc(C)c3C)c(=O)[nH]c2c1	inactive
COc1ccc(-c2[nH]ncc2-c2nc(C)cs2)c(O)c1	inactive
Cc1[nH]c(C)c(S(=O)(=O)NCc2ccc(Cl)cc2)c1C(=O)N1CCCC1	inactive
Cc1ccc(C(=O)NC(=C(Cl)Cl)S(=O)(=O)c2ccccc2)cc1	inconclusive: 35.5 µM [inhibitor, single point]
COc1ccc(CSc2nc3ccncc3n2CC(=O)Nc2cc(C)cc(C)c2)cc1	inconclusive: 0.562 µM [inhibitor, full curve]
CC(C)c1nnc(NC(=O)c2cccc(NC(=O)C(F)(F)F)c2)s1	inactive
CCOC(=O)c1c(C)[nH]c(C)c1S(=O)(=O)NCC(=O)Nc1ccc(C)cc1C	inconclusive: 12.6 µM [inhibitor, single point]
Cc1ccc(NC(=O)c2ncn(CC(=O)NCc3nc4ccccc4[nH]3)n2)cc1C	inconclusive: 28.2 µM [inhibitor, single point]
O=C(c1ccc(Cl)c(Cl)c1)N1CCC(=O)N(C(COCc2cccc(Cl)c2)Cc2ccccc2)CC1 (stereo unspecified)	inconclusive: 17.8 µM [inhibitor, single point]
Cc1ccc(OCC(=O)N/N=C\c2cn(Cc3ccccc3)c3ccccc23)cc1C	active: 11.2 µM
O=C(c1ccc(-c2ccccc2Cl)o1)N1CCCCCCC1	inconclusive: 22.4 µM [inhibitor, single point]
Cc1cc(Cl)ccc1OCC(=O)NNC(=O)C1CCN(c2ncnc3sc(C)c(C)c23)CC1	inconclusive: 11.2 µM [inhibitor, single point]
Oc1ccc(N2CCN(C(c3ccc(Cl)cc3)c3nnnn3Cc3ccc(F)cc3)CC2)cc1 (stereo unspecified)	inconclusive: 35.5 µM [inhibitor, single point]
COc1ccc(C2=CC(c3sccc3C)n3nnnc3N2)cc1 (stereo unspecified)	inconclusive: 6.31 µM [inhibitor, single point]
Fc1ccc(Nc2nc(SCc3ccccc3Cl)nc3ccccc23)cc1	active: 17.8 µM
COc1cccc(/C=C2\SC(=S)N(CCCC(=O)N(CCO)c3ccccc3)C2=O)c1	inconclusive: 35.5 µM [inhibitor, single point]
O[C@@H]1[C@@H](O)C=C2CCN3Cc4cc5c(cc4[C@H]1C23)OCO5 (stereo partly specified)	active: 3.55 µM
